# Laboratory results reported in the supplement of paper PMC12217912.
# This is one part of the list. The full chains were built here from the parent and the listed change. Inactive controls read about 0.05.
# B1: TEV protease; numbered along this chain (parent)
# chain: MGESLFKGPRDYNPISSSICHLTNESDGHTTSLYGIGFGPFIITNKHLFRRNNGTLVVQSLHGVFKVKDTTTLQQHLVDGRDMIIIRMPKDFPPFPQKLKFREPQREERICLVTTNFQTKSMSSMVSDTSCTFPSGDGIFWKHWIQTKDGQCGSPLVSTRDGFIVGIHSASNFTNTNNYFTSVPKNFMELLTNQEAQQWVSGWRLNADSVLWGGHKVFMVKPEEPFQPVKEATQL
# Variants of: B1
# Test: raw area under fraction-flipped curve 0-4 h after induction (AUC4h, not background-subtracted), DNA-recorder readout of cleavage of the substrate (dimensionless); higher = more cleavage of the substrate by the protease variant
# Conditions: temperature: 34 °C; time window: 0-4 h after rhamnose induction
# Experimental: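 In vivo DNA recorder in E. coli TOP10(DE3) ΔrhaA at 34 °C. Each TEVp single-site mutant (parent TEVp 0) is paired with a single-site variant of the 7-mer TEVs (canonical ENLYFQ|S). The substrate sits between flexible linkers in a Bxb1-sfGFP-TEVs-SsrA fusion, so cleavage stabilises Bxb1 and speeds flipping of a recombination array, read by NGS. The value is the raw area under the fraction-flipped curve over 0-4 h after rhamnose induction (AUC4h), with ≥20 reads per time point. It is not background-subtracted; inactive controls average about 0.047.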
# 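Note: Bxb1 expression induced with 0.2% (w/v) L-rhamnose at OD600 near 0.5, cultures sampled hourly, flipped fraction per protease–substrate barcode pair counted by paired-end Illumina sequencing.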
Variant,area with substrate ENLYFQA,area with substrate ENLYFQC,area with substrate ENLYFQF,area with substrate ENLYFQG,area with substrate ENLYFQH,area with substrate ENLYFQI,area with substrate ENLYFQK,area with substrate ENLYFQL,area with substrate ENLYFQM,area with substrate ENLYFQN,area with substrate ENLYFQP,area with substrate ENLYFQS,area with substrate ENLYFQW,area with substrate ENLYFQY,area with substrate ENLYFQD,area with substrate ENLYFQR,area with substrate ENLYFQT,area with substrate ENLYFQV,area with substrate ENLYFQQ,area with substrate ENLYFQE
MGESLFKGPRDYNPISSSICHLTNESDGHTTSLYGIGFGPFIITNKHLFRRNNGTLVVQSLHGVFKVKDTTTLQQHLVDGRDMIIIRMPKDFPPFPQKLKFREPQRDERICLVTTNFQTKSMSSMVSDTSCTFPSGDGIFWKHWIQTKDGQCGSPLVSTRDGFIVGIHSASNFTNTNNYFTSVPKNFMELLTNQEAQQWVSGWRLNADSVLWGGHKVFMVKPEEPFQPVKEATQL [E107D],0.0897,0.11,0.0603,0.0794,0.0832,0.0679,0.058,0.0531,0.0897,0.0863,0.0687,0.102,0.0856,0.0712,,,,,,
MGESLFKGPRDYNPISSSICHLTNESDGHTTSLYGIGFGPFIITNKHLFRRNNGTLVVQSLHGVFKVKDTTTLQQHLVDGRDMIIIRMPKDFPPFPQKLKFREPQRVERICLVTTNFQTKSMSSMVSDTSCTFPSGDGIFWKHWIQTKDGQCGSPLVSTRDGFIVGIHSASNFTNTNNYFTSVPKNFMELLTNQEAQQWVSGWRLNADSVLWGGHKVFMVKPEEPFQPVKEATQL [E107V],0.0936,,,,0.0749,0.0579,0.0596,,,0.0785,0.063,0.0975,0.0652,0.0571,0.0668,0.0085,0.0636,0.0598,,
MGESLFKGPRDYNPISSSICHLTNESDGHTTSLYGIGFGPFIITNKHLFRRNNGTLVVQSLHGVFKVKDTTTLQQHLVDGRDMIIIRMPKDFPPQPQKLKFREPQREERICLVTTNFQTKSMSSMVSDTSCTFPSGDGIFWKHWIQTKDGQCGSPLVSTRDGFIVGIHSASNFTNTNNYFTSVPKNFMELLTNQEAQQWVSGWRLNADSVLWGGHKVFMVKPEEPFQPVKEATQL [F95Q],0.0707,,,,,,,,,,,0.0712,,,,,0.0468,,0.0367,
MGESLFKGPRDYNPISSSICHLTNESDGHTTSLYGIGFGPFIITNKHLFRRNNGTLVVQSLHGVFKVKDTTTLQQHLVDGRDMIIIRMPKDFPPFPQKLKFREPQREERACLVTTNFQTKSMSSMVSDTSCTFPSGDGIFWKHWIQTKDGQCGSPLVSTRDGFIVGIHSASNFTNTNNYFTSVPKNFMELLTNQEAQQWVSGWRLNADSVLWGGHKVFMVKPEEPFQPVKEATQL [I110A],0.101,0.125,,,,,,,,,,0.102,,,,,0.0652,,,
MGESLFKGPRDYNPISSSICHLTNESDGHTTSLYGIGFGPFIITNKHLFRRNNGTLVVQSLHGVFKVKDTTTLQQHLVDGRDMIIIRMPKDFPPFPQKLKFRNPQREERICLVTTNFQTKSMSSMVSDTSCTFPSGDGIFWKHWIQTKDGQCGSPLVSTRDGFIVGIHSASNFTNTNNYFTSVPKNFMELLTNQEAQQWVSGWRLNADSVLWGGHKVFMVKPEEPFQPVKEATQL [E103N],0.0668,,,,,,,0.053,,,,0.106,0.0731,0.0771,,,,0.0664,,
MGESLFKGPRDYNPISSSICHLTNESDGHTTSLYGIGFGPFIITNKHLFRRNNGTLVVQSLHGVFKVKDTTTLQQHLVDGRDMIIIRMPKDFPPFDQKLKFREPQREERICLVTTNFQTKSMSSMVSDTSCTFPSGDGIFWKHWIQTKDGQCGSPLVSTRDGFIVGIHSASNFTNTNNYFTSVPKNFMELLTNQEAQQWVSGWRLNADSVLWGGHKVFMVKPEEPFQPVKEATQL [P96D],0.147,0.157,0.0902,0.0934,,,0.0785,,0.0727,,0.0593,0.114,0.0623,0.0823,0.091,0.0674,0.0609,,0.0791,
MGESLFKGPRDYNPISSSICHLTNESDGHTTSLYGIGFGPFIITNKHLFRRNNGTLVVQSLHGVFKVKDTTTLQQHLVDGRDMIIIRMPKDFPHFPQKLKFREPQREERICLVTTNFQTKSMSSMVSDTSCTFPSGDGIFWKHWIQTKDGQCGSPLVSTRDGFIVGIHSASNFTNTNNYFTSVPKNFMELLTNQEAQQWVSGWRLNADSVLWGGHKVFMVKPEEPFQPVKEATQL [P94H],0.0803,0.107,,0.11,0.108,,,0.0617,0.0896,,,0.102,,0.0906,0.0781,0.0638,0.0792,,,0.0703
MGESLFKGPRDYNPISSSICHLTNESDGHTTSLYGIGFGPFIITNKHLFRRNNGTLVVQSLHGVFKVKDTTTLQQHLVDGRDMIIIRMPKDFPLFPQKLKFREPQREERICLVTTNFQTKSMSSMVSDTSCTFPSGDGIFWKHWIQTKDGQCGSPLVSTRDGFIVGIHSASNFTNTNNYFTSVPKNFMELLTNQEAQQWVSGWRLNADSVLWGGHKVFMVKPEEPFQPVKEATQL [P94L],0.101,0.124,0.105,,,,,0.0531,,0.0871,,0.108,0.0678,,,0.0569,,,,
MGESLFKGPRDYNPISSSICHLTNESDGHTTSLYGIGFGPFIITNKHLFRRNNGTLVVQSLHGVFKVKDTTTLQQHLVDGRDMIIIRMPKDFEPFPQKLKFREPQREERICLVTTNFQTKSMSSMVSDTSCTFPSGDGIFWKHWIQTKDGQCGSPLVSTRDGFIVGIHSASNFTNTNNYFTSVPKNFMELLTNQEAQQWVSGWRLNADSVLWGGHKVFMVKPEEPFQPVKEATQL [P93E],0.0526,0.137,,0.131,,0.102,0.0542,,0.106,,0.0671,0.127,0.0711,,,,0.0673,,,
MGESLFKGPRDYNPISSSICHLTNESDGHTTSLYGIGFGPFIITNKHLFRRNNGTLVVQSLHGVFKVKDTTTLQQHLVDGRDMIIIRMPKDFPPFPQKLKFREPQRERRICLVTTNFQTKSMSSMVSDTSCTFPSGDGIFWKHWIQTKDGQCGSPLVSTRDGFIVGIHSASNFTNTNNYFTSVPKNFMELLTNQEAQQWVSGWRLNADSVLWGGHKVFMVKPEEPFQPVKEATQL [E108R],0.0608,,,0.0413,0.0586,0.0558,0.0595,0.0507,0.0575,,0.0423,0.0606,,,0.0526,,0.0523,0.0497,0.0512,
MGESLFKGPRDYNPISSSICHLTNESDGHTTSLYGIGFGPFIITNKHLFRRNNGTLVVQSLHGVFKVKDTTTLQQHLVDGRDMIIIRMPKDFPPFPQKLKFREPQREWRICLVTTNFQTKSMSSMVSDTSCTFPSGDGIFWKHWIQTKDGQCGSPLVSTRDGFIVGIHSASNFTNTNNYFTSVPKNFMELLTNQEAQQWVSGWRLNADSVLWGGHKVFMVKPEEPFQPVKEATQL [E108W],0.0818,0.0795,0.0585,0.072,0.0565,0.049,0.0554,,0.0622,0.0731,0.0516,0.0625,0.0588,,0.0608,0.034,0.0536,,,0.0512
